Results from the supplement of paper PMC12217912.
This is one part of the list. The full chains were built here from the parent and the listed change. Inactive controls read about 0.05.

B1: TEV protease; numbered along this chain (parent)
chain: MGESLFKGPRDYNPISSSICHLTNESDGHTTSLYGIGFGPFIITNKHLFRRNNGTLVVQSLHGVFKVKDTTTLQQHLVDGRDMIIIRMPKDFPPFPQKLKFREPQREERICLVTTNFQTKSMSSMVSDTSCTFPSGDGIFWKHWIQTKDGQCGSPLVSTRDGFIVGIHSASNFTNTNNYFTSVPKNFMELLTNQEAQQWVSGWRLNADSVLWGGHKVFMVKPEEPFQPVKEATQL

Variants of: B1
Assay: raw area under fraction-flipped curve 0-4 h after induction (AUC4h, not background-subtracted), DNA-recorder readout of cleavage of the substrate (dimensionless); higher = more cleavage of the substrate by the protease variant
Settings: temperature: 34 °C; time window: 0-4 h after rhamnose induction
Protocol: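 In vivo DNA recorder in E. coli TOP10(DE3) ΔrhaA at 34 °C. Each TEVp single-site mutant (parent TEVp 0) is paired with a single-site variant of the 7-mer TEVs (canonical ENLYFQ|S). The substrate sits between flexible linkers in a Bxb1-sfGFP-TEVs-SsrA fusion, so cleavage stabilises Bxb1 and speeds flipping of a recombination array, read by NGS. The value is the raw area under the fraction-flipped curve over 0-4 h after rhamnose induction (AUC4h), with ≥20 reads per time point. It is not background-subtracted; inactive controls average about 0.047.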
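Also: Bxb1 expression induced with 0.2% (w/v) L-rhamnose at OD600 near 0.5, cultures sampled hourly, flipped fraction per protease–substrate barcode pair counted by paired-end Illumina sequencing.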

Variant	area with substrate ENLYFQF	area with substrate ENLYFQG	area with substrate ENLYFQL	area with substrate ENLYFQS	area with substrate ENLYFQH	area with substrate ENLYFQI	area with substrate ENLYFQN	area with substrate ENLYFQQ	area with substrate ENLYFQR	area with substrate ENLYFQT
D91E	0.0649	0.105	0.0749	0.106						
D91S		0.133	0.0568	0.112	0.0765	0.0657	0.0821	0.119	0.0651	0.0595
N175A	0.0576	0.0935	0.0546	0.0801	0.0537	0.0551	0.0889		0.0568	
K100Q		0.0953	0.0914	0.102		0.0567				0.0643
E3A				0.104	0.077				0.0587	
E103P		0.0871	0.0587	0.105			0.0593		0.0264	
F180S		0.0645		0.066			0.0613			
F180H		0.0995		0.107		0.0536				0.0577
F173T	0.0496		0.0792	0.093		0.0662			0.0807	
R204P	0.0522			0.0702	0.0589	0.0703			0.0541	
K66W	0.0556	0.0772	0.0639	0.0965	0.0777	0.052	0.0706	0.0612	0.0579	0.0649
K66A				0.11			0.0685		0.0555	
P228R			0.0584	0.0958		0.0686		0.0841	0.0803	0.0698
C131K	0.088	0.0733	0.0581	0.11			0.089		0.0631	0.0758
C131I	0.0805		0.0602	0.113		0.0541	0.0765			0.0974
T114N		0.0947	0.0614	0.108	0.0699		0.109	0.0624		0.0681
D79Q				0.0982		0.0487				
V210E	0.059			0.0816						
M125W			0.0555	0.0929		0.0532	0.0779		0.0524	
M125Y		0.0577		0.105			0.0969	0.0615	0.0617	
I139T		0.139	0.055	0.131		0.0819			0.0618	
M83R	0.0385		0.0481	0.0498						0.0572

Variant	area with substrate ENLYFQF	area with substrate ENLYFQG	area with substrate ENLYFQL	area with substrate ENLYFQS	area with substrate ENLYFQH	area with substrate ENLYFQI	area with substrate ENLYFQN	area with substrate ENLYFQQ	area with substrate ENLYFQR	area with substrate ENLYFQT
N172V		0.0593		0.0552			0.0619		0.0508	
N172P		0.0683		0.0581	0.072	0.0524				0.0074
F92N			0.0617	0.0847		0.0691			0.0558	0.0512
F92L		0.134		0.109		0.0478	0.0844			0.0689
V57Q	0.11			0.133						
V165M	0.0554		0.0511	0.0759			0.0667		0.047	
S124G	0.0738	0.0755	0.0566	0.106					0.0594	0.0646
F101E		0.0453	0.0468	0.0502		0.0523		0.054		0.0369
F101S	0.0452	0.142	0.041	0.0527	0.0562					0.0456
F101H		0.0453		0.0486		0.0554			0.0475	
S182H		0.0789	0.0536	0.0844		0.0601	0.0696		0.0624	0.0572
L235F		0.0743		0.0981						0.0699
L235Y	0.0939			0.102		0.045	0.0865			
L235P	0.087	0.128	0.0641	0.112		0.0398				0.0563
V229R	0.0104		0.0606	0.105			0.0832	0.0708	0.0455	
V229D				0.111					0.0614	
S201Q		0.0763		0.0995	0.0879					0.0671
G213C				0.0668			0.0422			0.0499
N178Q		0.184		0.117	0.089			0.0699		0.0742
F163M	0.104			0.116						0.0531
F163A		0.0901		0.109			0.0877			

Same assay, conditions: temperature: 34 °C; time window: 0-4 h after rhamnose induction

Variant	area with substrate ENLYFQV	area with substrate ENLYFQW	area with substrate ENLYFQK	area with substrate ENLYFQM	area with substrate ENLYFQP	area with substrate ENLYFQY	area with substrate ENLYFQD	area with substrate ENLYFQC	area with substrate ENLYFQE
D91S	0.0465	0.113							
N175A	0.07	0.0671	0.0746	0.0862	0.0588	0.0645			
K100Q		0.0798	0.0694	0.0797			0.086		
E3A	0.0481	0.0625				0.0622	0.094		
E103P		0.0363							
F180S		0.0772				0.0698	0.0572		
F180H		0.0412			0.0561				
F173T	0.0666			0.0694	0.058	0.0568			
R204P		0.047		0.0677		0.0635	0.0987		
K66W	0.055	0.0614	0.0548	0.0972	0.0632	0.0631			
K66A				0.127			0.0642		
P228R		0.0703	0.0613					0.126	
C131K		0.0657							
C131I	0.0649								
T114N		0.071		0.0797	0.0515				
D79Q	0.039		0.0638	0.0823			0.0752		
V210E			0.0628						
M125W		0.0653		0.0881	0.0582		0.0752		
M125Y		0.0746		0.0793					
I139T					0.0842				0.0576

Variant	area with substrate ENLYFQV	area with substrate ENLYFQW	area with substrate ENLYFQK	area with substrate ENLYFQM	area with substrate ENLYFQP	area with substrate ENLYFQY	area with substrate ENLYFQD	area with substrate ENLYFQC	area with substrate ENLYFQE
M83R		0.0439	0.0326						
N172V		0.0518	0.061						
N172P						0.0636	0.0639		
F92N	0.0444	0.0337	0.0601	0.0732		0.0688			0.0522
F92L			0.0984	0.131	0.0564		0.0694		
V57Q		0.0674	0.049			0.139			
S124G	0.0523	0.0668		0.0987	0.0557		0.081		
F101E	0.0491	0.0654							
F101S					0.0475	0.0355			
F101H	0.038								
S182H			0.0575	0.0519	0.0272	0.0573			
L235F			0.0464		0.0476		0.0865	0.145	
L235Y			0.0644						
L235P		0.0628		0.118			0.0706	0.118	
V229R	0.0701		0.0676	0.0931					
V229D			0.0621					0.151	
S201Q			0.0659	0.0824		0.0706			
G213C	0.0669	0.0715			0.0663				0.0741
F163M	0.0462						0.062		
F163A			0.0456			0.083			
